Source: PubChem BioAssay AID686978 (National Center for Advancing Translational Sciences (NCATS), 2013)
The whole screen tested about 420,000 compounds, of which about 64,000 (15%) were called active. Inconclusive results, whose numbers are uncertain, are shown with a selection of clear calls. The call rests on the fitted dose curve; in most records, active means well fitted inhibition curve with a large enough effect; inconclusive means small, poorly fitted or top-dose-only effect; inactive means flat fitted curve, though single readings scatter. Potencies of inconclusive entries are left out as doubtful fits.

Experiment: qHTS for Inhibitors of human tyrosyl-DNA phosphodiesterase 1 (TDP1): qHTS in cells in absence of CPT; further: nearly all actives have a fitted effect of over 55% in size
Details: DT40 Tdp1-/- hTDP1 cells, no CPT, ATP luminescence, 48 h; series mostly up to 46.2 µM
Outline: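 Chicken DT40 Tdp1-/- cells stably complemented with human TDP1 were seeded at 400 cells/well with DMSO in place of 20 nM camptothecin. After compound pinning, cells grew at least 48 hr at 37 °C; viability read by CellTiter-Glo luminescence.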
Potency means the concentration at half of the fitted maximal effect; tags describe the fitted curve by direction and shape.

| SMILES | Potency |
| --- | --- |
| COCc1ccc(C(=O)N2CCCC(N3CCN(c4cccc(Cl)c4)CC3)C2)s1 (stereo not drawn) | inconclusive [inhibitor, single point] |
| CCOc1cccc(C2c3c(oc4cc(C)c(C)cc4c3=O)C(=O)N2c2nc(C)c(C)s2)c1 (stereo not drawn) | inactive |
| CC(/C=N/NC(=O)c1nnn(-c2nonc2N)c1C(C)C)=C\c1ccccc1 | inconclusive [inhibitor, single point] |
| CC(=O)Oc1c(C)c(OC(C)=O)c2c(c1C(C)=O)OC1CC(=O)C(C(C)=O)=C(O)C21C (stereo not drawn) | inconclusive [inhibitor, single point] |
| O=C(CC1CCCC1)N1CCN(S(=O)(=O)c2ccc(F)cc2)CC1 | inconclusive [inhibitor, partial curve, poor fit] |
| Cc1cc(C)nc(NNS(=O)(=O)c2ccc(F)c(Cl)c2)n1 | inconclusive [inhibitor, single point] |
| COC(=O)c1ccc(Cn2nc(-c3cc(C)ccc3C)ccc2=O)cc1 | inconclusive [inhibitor, partial curve] |
| CCn1c(SCC(=O)Nc2cc(C)ccc2C)nnc1-c1cnccn1 | inactive |
| COC(=O)N1CCC2(CCCN(Cc3ccc(C#N)cc3)C2)CC1 | inconclusive [inhibitor, single point] |
| O=C(COC(=O)c1ccccc1F)NCc1ccc2c(c1)OCO2 | inactive |
| COc1ccccc1NS(=O)(=O)c1ccc(N2CCOCC2)c(N)c1 | inactive |
| CN1CCN(CCc2nc3cc(NC(=O)COc4ccc(Cl)cc4)ccc3n2C)CC1 | inconclusive [inhibitor, single point] |
| O=C(CSc1nnc(C2CC2)n1-c1ccccc1)NCCc1ccc(F)cc1 | inconclusive [inhibitor, single point] |
| Cc1ccc(NC(=O)CN2C(=O)C(C)(C)c3cc(S(=O)(=O)N4CCCCC4)ccc32)c(Br)c1 | inconclusive [inhibitor, partial curve] |
| COC(=O)c1sc(NC(=O)c2cnccn2)c(C(=O)OC)c1C | inactive |
| COCCCNC(=S)NNC(=S)Nc1cccc(Cl)c1 | inconclusive [inhibitor, single point] |
| CN(C)CCC(=O)c1ccc(Cl)cc1 | active: 4.61 µM |
| O=C(Nc1ccccc1)OCCOc1ccccc1Br | inactive |
| O=C(Nc1ccccc1N1CCOCC1)c1cccc(Oc2ccccc2)c1 | inconclusive [inhibitor, partial curve] |
| O=C(CSc1nnc(-c2ccccc2)n1Cc1ccccc1)NNC(=O)c1ccccc1O | active: 25.9 µM |
| Cc1ccc(NS(=O)(=O)c2cc(NC(=O)c3ccc4c(c3)NC(=O)CS4)ccc2Cl)c(C)c1 | active: 25.9 µM |
| O=C(COC(=O)c1cc(-c2cccs2)nc2ccccc12)c1ccc(Cl)cc1 | inconclusive [inhibitor, partial curve] |
| C=CCN(CC=C)C(=O)c1cccc(OC2CCN(CC(C)(C)C)CC2)c1 | inconclusive [inhibitor, single point] |
| CCOc1ccc(Nc2oc(/C=C/c3cc(OC)c(OC)c(OC)c3)nc2C#N)cc1 | inconclusive [inhibitor, single point] |
| Cn1ccnc1SCC(=O)Nc1ccc2c(c1)OCCO2 | inactive |

| SMILES | Potency |
| --- | --- |
| O=C(N/N=C/c1cc2ccccc2[nH]1)c1ccccc1Cl | inactive |
| CCOc1ccc2nc(N(CCCN(C)C)C(=O)c3ccc4c(c3)CCCC4)sc2c1 | inconclusive [inhibitor, single point] |
| C=CCN(c1ccc(Cl)cc1)S(=O)(=O)c1cccc(C(=O)OCC(=O)N(C)C)c1 | inconclusive [inhibitor, single point] |
| COc1ccc(N2CCN(S(=O)(=O)CCNC(=O)c3ccc(Br)o3)CC2)cc1 | inactive |
| CCOc1ccc(N(C(=O)Cn2nnc3ccccc32)C(C(=O)NC(C)(C)CC)c2cccn2C)cc1 (stereo not drawn) | inconclusive [inhibitor, single point] |
| O=C(NC1CC(=O)N(c2ccc(Cl)cc2)C1)C1CCCCC1 (stereo not drawn) | inactive |
| CCCCOCCCNC(=O)C[C@@H]1C[C@@]2(C(=O)OC)CCCCC=C2N(CCc2ccc(OC)c(OC)c2)C1=O | inconclusive [inhibitor, single point] |
| COc1ccc(CCNC(=O)c2cc([C@@H](NC(=O)OC(C)(C)C)C(C)C)sc2N)cc1OC | active: 18.4 µM |
| COc1cc2c(cc1NC(=O)CSc1nccn1C)oc1ccccc12 | active: 18.4 µM |
| COc1ccccc1-c1cc(C(F)(F)F)nc(S(=O)(=O)CCCC(=O)O)n1 | inconclusive [inhibitor, single point] |
| COc1ccccc1C(CNc1ncnc2sc(C)c(C)c12)N(C)C (stereo not drawn) | active: 20.6 µM |
| COc1ccc(C2OCC3(CO2)SC(=O)NC3=O)cc1OC (stereo not drawn) | inactive |
| CC1CCC(NC(=O)C2CCN(c3nc4ccccc4s3)CC2)CC1 (stereo not drawn) | inconclusive [inhibitor, full curve, poor fit] |
| COc1ccc(-c2noc(C3CC(=O)N(c4ccc5c(c4)OCCO5)C3)n2)c(OC)c1 (stereo not drawn) | inconclusive [inhibitor, single point] |
| COc1cccc(NS(=O)(=O)c2cc(-c3cnc(C4CC4)o3)ccc2C)c1 | active: 0.58 µM |
| Cc1ccc(NC(=O)CSc2nc(-c3ccco3)nc3cc(=O)[nH]n23)c(Cl)c1 | inactive |
| O=C(Nc1cccc(N2C(=O)C3CCCCC3C2=O)c1)c1ccccc1 (stereo not drawn) | inactive |
| O=c1c2c3c(sc2n2c(=S)[nH]nc2n1-c1ccccc1)CCC3 | inactive |
| O=C1CC(N2CCN(c3nc4ccccc4s3)CC2)C(=O)N1Cc1cccs1 (stereo not drawn) | inconclusive [inhibitor, single point] |
| OCCC1CN(Cc2ccccc2OC2CCCC2)CCN1Cc1ccsc1 (stereo not drawn) | active: 14.6 µM |
| COc1cccc(NC(=O)COC(=O)c2ccccc2C(=O)N(C)c2ccccc2)c1 | inconclusive [inhibitor, single point] |
| Cn1c(CNc2ccc(O)cc2)nc2ccccc21 | inconclusive [inhibitor, single point] |
| OCCCCNc1cccc2ccccc12 | inactive |
| CN1CCN(c2ccc(CNC(=O)c3ccc(-c4ccnn4C)c4ccoc34)cc2)CC1 | inconclusive [inhibitor, single point] |
| O=C(NCCNCCO)c1c(O)c2cccc3c2n(c1=O)CCC3 | inconclusive [inhibitor, single point] |

| SMILES | Potency |
| --- | --- |
| CCCOc1ccc(C2CC(=O)NC2=O)cc1 (stereo not drawn) | inactive |
| C/C=C(\C)CN1CCCC(CO)(Cc2ccccc2)C1 (stereo not drawn) | inactive |
| CCOc1cc2c(cc1OCC)C(c1ccc(F)cc1)NCC2 (stereo not drawn) | inconclusive [inhibitor, single point] |
| O=C(COc1ccc(Cl)cc1)Nc1nnc(-c2ccc3c(c2)CCCC3)o1 | active: 5.8 µM |
| O=C(CN1C(=O)NC2(CCc3ccccc32)C1=O)NCc1ccc(Cl)cc1 (stereo not drawn) | inactive |
| O=S(Cc1ccc(Cl)cc1)CC(O)(c1ccccc1)c1ccccc1 (stereo not drawn) | inactive |
| COc1cc(C2C3C(=O)N(c4ccccc4)C(=O)C3ON2c2ccccc2)ccc1O (stereo not drawn) | inactive |
| COc1ccc(CCNC(=O)CSc2cn(CCNC(=O)c3ccc(OC)c(OC)c3)c3ccccc23)cc1OC | active: 23.1 µM |
| Cc1cc(C)c(NC(=O)CSc2nnc(SCC(=O)Nc3c(C)cc(C)cc3C)n2N)c(C)c1 | inconclusive [inhibitor, single point] |
| O=C(Nc1ccc(S(=O)(=O)Nc2ccccc2)cc1)C1CC1 | inconclusive [inhibitor, single point] |
| O=C(CN1C(=O)C(=O)N(Cc2ccccc2)C1=O)Nc1ccc(OC(F)F)cc1 | inactive |
| CCC/C(O)=C1\C(=O)CC(C)(C)CC1=NCc1ccccc1 | inconclusive [inhibitor, partial curve, poor fit] |
| CCc1ccccc1NC(=O)[C@H](Cc1ccccc1)N1Cc2ccccc2C1=O | inconclusive [inhibitor, single point] |
| Cc1ccc(N(CCC#N)C(=O)COC(=O)C2CCN(c3ccc(C(F)(F)F)cn3)CC2)cc1 | inconclusive [inhibitor, single point] |
| CSc1nc(N)nc(SCC(=O)c2ccccc2)c1C#N | inconclusive [inhibitor, single point] |
| COc1cc(NC(=O)c2ccc(=O)[nH]n2)cc(OC)c1OC | inactive |
| O=C(Cn1ncc2c(=O)oc3ccccc3c21)NCCC1=CCCCC1 | inconclusive [inhibitor, partial curve, poor fit] |
| Cc1c(C(=O)NC2CCCCC2C)oc2ccccc12 (stereo not drawn) | inconclusive [inhibitor, single point] |
| CCn1c(=O)c2ccccc2n(Cc2ccccc2C)c1=O | inconclusive [inhibitor, partial curve] |
| N#Cc1cc(Cl)c(NCC2CCCO2)cc1C#N (stereo not drawn) | inactive |
| CN=C(Nc1ccc(Cl)cc1)c1ccc(C(F)(F)F)cc1 | inactive |
| COc1cccc(NC(=O)c2ccc(N3C(=O)C4CCC(C)CC4C3=O)cc2)c1 (stereo not drawn) | inconclusive [inhibitor, full curve, poor fit] |
| Cc1ccc(S(=O)(=O)N2CCN(C(=O)c3ccc(COc4ccccc4)o3)CC2)cc1 | inconclusive [inhibitor, single point] |
